Where “and” joins values, the source holds several entries; their conditions need not be identical. Identical values can stand only once. In all, about 390,000 compounds went through this assay and about 2,200 (0.56%) were called active. This list was built around the results that the source calls inconclusive (neither active nor inactive); the mix of calls is not that of the screen. The call rests on the fitted dose curve; in most records, active means well fitted inhibition curve with a large enough effect; inconclusive means small, poorly fitted or top-dose-only effect; inactive means no such curve, though single readings can be large or run the other way. Potencies of inconclusive entries are doubtful fits and often do not repeat.
target: Chromobox protein homolog 1 (Homo sapiens) (UniProt P83916); test: HTS for Inhibitors of HP1-beta Chromodomain Interactions with Methylated Histone Tails; conditions: AlphaScreen HP1-beta / biotin-H3K9me3 peptide binding; series mostly up to 114 µM; activity change, negative = inhibition: at the top concentration; further: nearly all actives have a fitted effect of over 70% in size
UniProt P83916, sequence (P83916 whole entry, looked up): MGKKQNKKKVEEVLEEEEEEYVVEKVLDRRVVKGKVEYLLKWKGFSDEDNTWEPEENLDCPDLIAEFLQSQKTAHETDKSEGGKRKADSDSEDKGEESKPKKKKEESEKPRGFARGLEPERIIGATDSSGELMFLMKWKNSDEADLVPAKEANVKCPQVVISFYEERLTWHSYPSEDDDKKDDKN
Outline: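 Compound inhibition of the preformed complex between 50 nM HP1-beta and 50 nM biotinylated H3K9me3 peptide was read by AlphaScreen. Buffer was PBS pH 7.4 with 0.01% Tween-20. Incubations ran 30 min at room temperature, with 10 ug/mL donor/acceptor beads.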
Potency means the concentration at half of the fitted maximal effect; tags describe the fitted curve by direction and shape.

Compound	Potency	activity change, negative = inhibition
COc1ccc(CN(CCc2c[nH]c3ccccc23)Cc2ccc(OC)cc2)cc1	inconclusive: 22.4 µM [inhibitor, full curve]	–
CCOc1nc(NC(C)C)nc(N2CC3CC(C2)c2cccc(=O)n2C3)n1 (stereo not given)	inconclusive: 7.94 µM [inhibitor, full curve]	–
CCN1CCN(Cc2cccc(Oc3ccccc3)c2)CC1	inconclusive: 28.2 µM [inhibitor, partial curve]	–
Fc1ccc(N2CCN(Cc3ccc4c(c3)OCO4)CC2)cc1	inconclusive: 20 µM [inhibitor, single point]	–
c1ccc(Nc2ccc(Nc3ccccc3)cc2)cc1	inconclusive: 20 µM [inhibitor, full curve]	–
CCCC(C)c1nnc(NC(=O)CCS(=O)(=O)c2ccccc2)s1 (stereo not given)	inconclusive: 56.2 µM [inhibitor, partial curve, poor fit]	–
CC(=O)c1ccc2c(c1)C1C(Cl)C(Sc3ccccc3[N+](=O)[O-])CC1C(C(=O)O)N2 (stereo not given)	inconclusive: 14.1 µM [inhibitor, full curve, poor fit]	–
NS(=O)(=O)c1ccc(N=Nc2c(O)[nH]c(=S)[nH]c2=O)cc1	–	inactive: 21.7%
CCOc1ccc(CN(CCc2ccc3c(c2)OCO3)Cc2cccc(Br)c2)cc1	inconclusive: 15.8 µM [inhibitor, partial curve, poor fit]	–
O=c1[nH]c2ccccc2o1	–	inactive: 21.5%
CCC(=NC(C)c1ccccc1)c1c(O)[nH]c(=O)[nH]c1=O (stereo not given)	–	inactive: 54.6%
COc1cc(-c2ccc(N)c(OC)c2)ccc1N	inconclusive: 50.1 µM [inhibitor, partial curve, poor fit]	–
CCN1C(=O)C(=C/C=C/c2ccco2)C(=O)N(CC)C1=S	inconclusive: 28.2 µM [inhibitor, partial curve]	–
COc1ccccc1N1CCN(Cc2ccc3c(c2)OCO3)CC1	inconclusive: 56.2 µM [inhibitor, partial curve, poor fit]	–
O=C(COc1ccc(Cl)cc1)N1CCN(C2CCCC2)CC1	inconclusive: 70.8 µM [inhibitor, partial curve, poor fit]	–
CCN1CCN(CC(=O)c2c(C)n(Cc3ccccc3)c3ccc(OC)cc23)CC1	inconclusive: 35.5 µM [inhibitor, single point]	–
COc1ccccc1OCC#CCN1CCCCCC1	inconclusive: 17.8 µM [inhibitor, full curve, poor fit]	–
O=C(COc1ccc2ccccc2c1)N1CCN(Cc2ccncc2)CC1	inconclusive: 12.6 µM [inhibitor, partial curve, poor fit]	–
O=C(O)CCC(=O)NCCC1=c2ccccc2=N/C1=C\c1c(O)n(Cc2ccc(F)cc2)c(=S)[nH]c1=O	active: 31.6 µM	–
COc1ccc(CN2CCN(Cc3ccccc3F)CC2)cc1	active: 17.8 µM	–

Compound	Potency	activity change, negative = inhibition
C[CH2][Hg][S]c1ccccc1C(=O)O	inconclusive: 3.55 µM [inhibitor, full curve, poor fit]	–
Cc1ccc(/C=C2\C(=O)NC(=S)N(c3ccccc3F)C2=O)s1	inconclusive: 17.8 µM [inhibitor, full curve, poor fit]	–
c1ccc(-c2nc(N3CCOCC3)s[n+]2-c2ccccc2)cc1	inconclusive: 31.6 µM [inhibitor, partial curve, poor fit]	–
CN(Cc1ccc(OC(F)F)cc1)C(=O)c1ccccc1Sc1ccccc1C#N	–	inactive: 47.4%
Cc1[nH]n(-c2ccccc2)c(=O)c1C(c1cccc([N+](=O)[O-])c1O)c1c(C)[nH]n(-c2ccccc2)c1=O	inconclusive: 50.1 µM [inhibitor, single point]	–
COc1ccc(NC(=O)CN2C(=O)CN=C(c3ccccc3)c3ccccc32)c(OC)c1	inconclusive: 79.4 µM [inhibitor, partial curve, poor fit]	–
COc1ccccc1CN1CCN(C(=O)COc2cccc(C)c2)CC1	inconclusive: 25.1 µM [inhibitor, partial curve, poor fit] and inconclusive: 50.1 µM [inhibitor, partial curve, poor fit]	–
COc1ccccc1N1C(=O)NC(=O)/C(=C/c2ccc([N+](=O)[O-])s2)C1=O	inconclusive: 50.1 µM [inhibitor, partial curve, poor fit]	–
Cc1cccc(-n2c(/C=C\c3cccc(Br)c3)nc3ccccc3c2=O)c1	–	inactive: 50.6%
O=[N+]([O-])c1cccc(CN2CCN(Cc3ccc(Cl)cc3)CC2)c1	inconclusive: 15.8 µM [inhibitor, full curve, poor fit]	–
CCCCCn1c(NC(=O)c2ccco2)c(C(=O)OCC)c2nc3ccccc3nc21	inconclusive: 89.1 µM [inhibitor, single point]	–
COC(=O)C1=C(c2cccc(OCc3ccccc3)c2)C[C@@H]2CC[C@H]1N2C(=O)NCc1ccc(N(C)C)cc1	inconclusive: 20 µM [inhibitor, full curve]	–
COc1cc(CN2CCN(C(=O)Cc3ccccc3)CC2)cc(OC)c1OC	inconclusive: 31.6 µM [inhibitor, partial curve, poor fit]	–
CC1CCN(C(CC(=O)c2ccccc2)C(=O)c2ccccc2)CC1 (stereo not given)	inconclusive: 20 µM [inhibitor, single point]	–
COC1CCC(OC2CC(C3(C)CCC4(CC(O)C(C)C(C(C)/C=C(\C)C(=O)C(C)CC(C)C(=O)O)O4)O3)OC3(OC(C4OC(O)(CO)C(C)CC4C)CC3C)C2C)OC1C (stereo not given)	–	inactive: 8.73%
COc1ccc(CN2CCN(C(=O)Cc3ccccc3)CC2)cc1Br	inconclusive: 15.8 µM [inhibitor, full curve, poor fit]	–
CN(C)c1ccc2c(c1)N=C(c1ccco1)OP2(=S)N1CCOCC1 (stereo not given)	active: 11.2 µM	–
COc1ccc(-c2nn(CCC#N)cc2C(=O)NCc2ccccc2)cc1OC	–	inactive: 24.1%
CCc1nc2ccc(N3CCN(C)CC3)cc2nc1CC	inconclusive: 89.1 µM [inhibitor, single point]	–
CP(=O)(Nc1ccc(Cl)cc1)c1nc2c(s1)CCCC2 (stereo not given)	–	inactive: 33%

— PubChem BioAssay AID540317 (National Center for Advancing Translational Sciences (NCATS), 2011)
